# Values of other authors in US20250340579A1 (priority 2022, published 2025).
# Conditions: dissociation of ionizable proton of the ligand; cited from earlier work
row,Structure (SMILES),pKa
1,c1c[nH]cn1 [imidazole],7.0
2,c1nnn[nH]1 [tetrazole],4.7
